Out of some 310,000 compounds screened, about 14,000 (4.5%) showed an effect of 50% or more. The effect is printed as a negative number. The list shows a part of the results.
Molecular target: human ether-à-go-go-related gene (hERG) potassium channel (human, UniProt Q12809)
Experiment: primary screen, population patch clamp on CHO cells stably expressing hERG
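Also: peak tail current of the secondary pulse compared with the same well before compound.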

Chain of human ether-à-go-go-related gene (hERG) potassium channel (Q12809 whole entry, looked up): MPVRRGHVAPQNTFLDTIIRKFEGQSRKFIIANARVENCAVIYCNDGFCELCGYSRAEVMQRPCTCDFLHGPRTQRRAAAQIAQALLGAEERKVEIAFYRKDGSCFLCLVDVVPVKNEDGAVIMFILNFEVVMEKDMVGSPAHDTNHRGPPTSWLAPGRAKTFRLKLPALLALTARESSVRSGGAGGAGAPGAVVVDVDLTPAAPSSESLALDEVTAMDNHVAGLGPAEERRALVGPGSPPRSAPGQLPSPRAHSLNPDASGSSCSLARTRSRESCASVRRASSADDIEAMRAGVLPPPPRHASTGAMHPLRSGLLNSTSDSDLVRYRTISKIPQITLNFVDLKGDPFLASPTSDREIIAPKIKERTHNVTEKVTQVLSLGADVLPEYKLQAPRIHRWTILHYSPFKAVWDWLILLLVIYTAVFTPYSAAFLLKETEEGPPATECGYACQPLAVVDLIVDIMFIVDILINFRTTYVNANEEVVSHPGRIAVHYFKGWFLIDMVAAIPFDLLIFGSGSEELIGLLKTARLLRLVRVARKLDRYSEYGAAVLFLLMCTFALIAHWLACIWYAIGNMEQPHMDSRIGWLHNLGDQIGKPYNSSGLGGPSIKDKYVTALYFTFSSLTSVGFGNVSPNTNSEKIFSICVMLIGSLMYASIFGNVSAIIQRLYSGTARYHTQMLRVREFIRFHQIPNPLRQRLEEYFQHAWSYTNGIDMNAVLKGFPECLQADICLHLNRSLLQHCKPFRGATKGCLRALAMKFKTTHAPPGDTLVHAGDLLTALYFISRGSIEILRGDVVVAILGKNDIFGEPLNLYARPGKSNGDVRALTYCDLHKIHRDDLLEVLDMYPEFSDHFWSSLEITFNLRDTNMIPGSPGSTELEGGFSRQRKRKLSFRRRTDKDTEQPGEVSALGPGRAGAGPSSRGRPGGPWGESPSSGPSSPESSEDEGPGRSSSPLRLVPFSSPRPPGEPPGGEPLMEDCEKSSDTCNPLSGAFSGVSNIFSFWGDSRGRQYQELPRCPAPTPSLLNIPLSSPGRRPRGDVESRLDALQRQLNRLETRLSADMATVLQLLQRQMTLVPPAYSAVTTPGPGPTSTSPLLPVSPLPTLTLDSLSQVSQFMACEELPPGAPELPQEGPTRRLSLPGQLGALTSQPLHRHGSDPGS

| Structure (SMILES) | hERG current change (%, negative = inhibition) at 10uM [%] |
| --- | --- |
| CC(C)N(Cc1nnc(-c2ccc(Cl)cc2)o1)C(=O)C1=COCCO1 | -19.9 |
| CCOc1ccc(NC(=O)CSc2nc(=O)n(Cc3cccnc3)c3c2CCC3)cc1 | -8.74 |
| CCOCCCNC(=O)C(c1ccc(C)cc1)N(Cc1cccs1)C(=O)c1ccccc1O (stereo not drawn) | -22.2 |
| Cn1c(SCC2CCCO2)nnc1-c1ccc([N+](=O)[O-])cc1 (stereo not drawn) | -63.8 |
| CCCOc1ccc(C(=O)CCNC(Cc2c[nH]c3ccccc23)C(=O)O)cc1 (stereo not drawn) | 14.1 |
| CC(=O)Nc1ccc(S(=O)(=O)NCC(=O)N2CCN(S(=O)(=O)c3cccs3)CC2)cc1 | 15 |
| COc1nc(/C=C/N(C)C)c([N+](=O)[O-])c(OC)n1 | 3.52 |
| COc1ccc(C(=O)Nc2ccccn2)cc1 | 5.19 |
| O=C(c1cc(F)ccc1F)C1CCCN(Cc2cccn2-c2ccccn2)C1 (stereo not drawn) | -77.9 |
| O=C(NCc1ccccn1)C1CCN(C(=O)c2cc3sccc3n2Cc2ccc(F)cc2)CC1 | -46.5 |
| COc1ccc(Cl)cc1C(=O)Nn1cnnc1 | 21.4 |
| Cc1ccccc1CSc1nnc(Cn2c(=O)sc3ccccc32)n1C | -6.32 |
| COc1nc(N)nc(N2CCOCC2)n1 | 5.42 |
| Cc1ccc(NC(=O)c2cc3cc(OC(F)(F)F)ccc3[nH]2)cc1 | 10.7 |
| Cc1ccc(C(=O)NC(O)C(Cl)Cl)cc1 (stereo not drawn) | 15.4 |
| COc1ccccc1CCN1CCCC(CN(C)Cc2ccc(OCCO)cc2)C1 (stereo not drawn) | -40.8 |
| CC(=O)Nc1ccc(S(=O)(=O)N2CCN(CC(=O)N3CCOCC3)CC2)cc1 | 13.1 |
| COc1ccccc1NC(=O)CCN1C(=O)C2C3CCC(C3)C2C1=O (stereo not drawn) | 7.66 |
| CCCCCn1c(=O)[nH]c2cc(C(=O)NCCCN(C)Cc3ccccc3)ccc2c1=O | 4.62 |
| CCOc1ccc2sc(NS(=O)(=O)c3ccc(N)cc3)nc2c1 | 12 |
| Cc1ccccc1C(=O)O | 2.95 |
| CN1CCc2c(sc(N)c2C(N)=O)C1 | 6.59 |

| Structure (SMILES) | hERG current change (%, negative = inhibition) at 10uM [%] |
| --- | --- |
| N#Cc1ccc(S(=O)(=O)NCC(=O)OCC(=O)NCCc2ccccc2)cc1 | 10.7 |
| Cc1cc(OCc2cccc(Cl)c2)c(C)cc1CN1CCOCC1 | 0.275 |
| O=C(NNC(=O)c1ccc(-c2ccccc2)cc1)Nc1ccccc1F | 9.1 |
| O=C(Nc1nc2ccccc2c(=O)[nH]1)c1ccccc1SCc1ccccc1 | 26.7 |
| COc1ccc2c(C)cc(N3CCCCCC3)nc2c1.O=C(O)C(=O)O | -82 |
| Cc1ccccc1OCC(=O)NNC(=O)Cc1ccc(S(=O)(=O)N2CCOCC2)s1 | 0.216 |
| COc1cccc(C2CCCCN2Cc2nc(-c3ccc(C)o3)oc2C)c1 (stereo not drawn) | -12.5 |
| O=C(CCN1C(=O)C2C3C=CC(C3)C2C1=O)N1CCCCC1 (stereo not drawn) | -4.12 |
| CN1CC(=O)N(CC(=O)N2N=C(c3ccc(Cl)cc3)CC2c2ccco2)C1=O (stereo not drawn) | -11.6 |
| Cc1nc2ccc(NC(=O)CCS(=O)(=O)c3ccc(Cl)cc3)cc2s1 | -5.74 |
| COc1cc(C(=O)Nc2cc3c4c(c2)CC(=O)N4CCC3)cc(OC)c1OC | 3.93 |
| COc1ccc(C2NC(=O)c3ccccc3O2)cc1 (stereo not drawn) | -4.49 |
| CC(=O)c1cccc(NC(=O)N2CCCC2C(=O)Nc2ccc3c(c2)OCO3)c1 (stereo not drawn) | 15.9 |
| CCN(CC(=O)Nc1ccc(NC(C)=O)cc1)C(=O)c1cc(CN2C(=O)c3ccccc3C2=O)ccc1OC | 11.1 |
| COc1ccc(CC(=O)Nc2cccc(-c3ccc4nnc(C)n4n3)c2)cc1OC | -0.118 |
| CN1C(=O)N(C)C2C1N(C)S(=O)(=O)N2C (stereo not drawn) | 18.5 |
| NC(=O)/C(=C\c1ccccc1)NC(=O)c1ccc(NC(=O)c2ccccc2)cc1 | 10.9 |
| O=C(c1ccccc1)c1cn[nH]c1-c1ccccc1O | 5.65 |
| Cc1cc(C)n2nc(NCc3cccc(Br)c3)nc2n1 | -70 |
| COc1ccc(S(=O)(=O)N2CCN(Cc3cccc([N+](=O)[O-])c3)CC2)cc1 | -87.4 |
| COCCCNC(=O)CCn1c(=O)c2ccccc2n(CC(=O)Nc2cc(Cl)ccc2C)c1=O | -17.6 |
| O=C(c1cccc(Br)c1)c1conc1C(=O)c1ccco1 | 2.57 |

| Structure (SMILES) | hERG current change (%, negative = inhibition) at 10uM [%] |
| --- | --- |
| COc1ccccc1C(=O)N/N=C1/NC(=O)CC(C(=O)Nc2ccccc2)S1 (stereo not drawn) | 9.35 |
| Cc1cccc(Oc2ccc(N)cc2)c1 | -12 |
| CNC(=S)Nc1ccc([N+](=O)[O-])cc1C | 25.3 |
| CCN(CC(=O)Nc1c(F)cccc1F)C(=O)c1ccccn1 | 1.1 |
| COc1ccc(N2CCN(C3CCCCC3NS(=O)(=O)c3ccc(Cl)cc3)CC2)cc1 (stereo not drawn) | 5.87 |
| C/C(=N\NC(=O)CCC(=O)N/N=C(\C)c1ccc(C)o1)c1ccc(C)o1 | -11 |
| Cc1ccc(C)c(CN2C(=O)COc3ccc(C(=O)c4ccccc4C(=O)O)cc32)c1 | 5.35 |
| O=C(Nc1ccccc1-c1nnn(CC(=O)N2CCc3ccccc3C2)n1)C1CCC1 | -52.8 |
| Cc1ccc(C)c(N2CCN(S(=O)(=O)c3ccc(-c4ccc(=O)[nH]n4)o3)CC2)c1 | 12.8 |
| O=C(Nc1ccc([N+](=O)[O-])cc1)OCCc1ccccn1 | 8.01 |
| O=C(CN1C(=O)c2cccc3cccc1c23)NC1CCCCC1 | 6.41 |
| COC(=O)c1cccc(COC(=O)c2cc3ccccc3oc2=O)c1 | -16.1 |
| CCOC(=O)c1ccc(S(=O)(=O)Nc2cc(C(C)(C)C)no2)cc1 | 5.32 |
| O=C(Cn1nc(-c2ccccc2Cl)ccc1=O)Nc1ccc(Br)cc1 | -3.77 |
| O=C(Cn1cc(C(F)(F)F)ccc1=O)N/N=C/c1cccc(Cl)c1 | 10.5 |
| O=C(CSc1nnc(-c2cnccn2)n1Cc1ccco1)c1ccc2ccccc2c1 | -15.4 |
| O=C(CSc1ccc2nnc(-c3ccccn3)n2n1)Nc1ccccc1F | -14.7 |
| COc1ccccc1CNC(=O)[C@@H]1CCCN1S(=O)(=O)c1ccccc1F | 23.3 |
| O=C(NC1(C(F)(F)F)NC(=O)N(c2ccc(F)c(Cl)c2)C1=O)c1ccncc1 (stereo not drawn) | -1.23 |
| CC(=O)Nc1c(-c2ccc(F)cc2)nc2ccccn12 | -11.6 |
| OCC[C@H]1C[C@@H](O)[C@H](O)[C@]2(Cc3ccccc3O2)O1 | -2.1 |
| Cc1ccc(S(=O)(=O)CC(=O)Nc2nc(-c3ccccc3)cs2)cc1 | -38 |

| Structure (SMILES) | hERG current change (%, negative = inhibition) at 10uM [%] |
| --- | --- |
| CCOC(=O)c1c(NC(=O)CSc2ncccn2)sc2c1CC(C)(C)NC2(C)C | -55.9 |
| CC(C)Sc1nnc(NC(=O)c2ccc3c(c2)OCO3)s1 | -25.9 |
| CCC(C)NC(=O)c1cccc(C)c1 (stereo not drawn) | -6.81 |
| COC(=O)C/C=C/[C@@H](C)[C@@H](/C=N/OCC[C@@H]1C=C[C@H](OC(C)=O)[C@@H](COC(C)=O)O1)NS(=O)(=O)c1ccc(C)cc1 | -7.77 |
| CCn1ncc(Cl)c1C(=O)NC(C)c1ccccc1 (stereo not drawn) | -8.21 |
| Cl.Nc1nc2ccccc2n1C(=O)c1cccs1 | 16.4 |
| CC(=O)NC(=S)Nc1ccc2oc(=O)ccc2c1 | 16.4 |
| O=C(OC1CCOC1=O)c1cc(-c2ccccc2)nc2ccccc12 (stereo not drawn) | -2.69 |
| O=C(CN1C(=O)NC2(CCCC2)C1=O)OCc1ccccc1F | 6.83 |
| Cc1cccc2sc(NNC(=O)c3ccc(S(=O)(=O)N4CCCC(C)C4)cc3)nc12 (stereo not drawn) | 2.91 |
| CN1CCN(C(=O)C2CCCCC2C(=O)O)CC1 (stereo not drawn) | 0.612 |
| CSCCC(NC(=O)COc1ccccc1)C(=O)N1CCCCCC1 (stereo not drawn) | -20.7 |
| COc1cccc(N2C(=NC(=O)C3CCCCC3)SC3CS(=O)(=O)CC32)c1 (stereo not drawn) | -0.837 |
| Cc1ccc(OCC(=O)N(Cc2cccs2)C2CCS(=O)(=O)C2)cc1 (stereo not drawn) | -8.3 |
| CN(C(=O)COC(=O)c1c2c(nc3ccccc13)CCCC2)c1c(N)n(Cc2ccccc2)c(=O)[nH]c1=O | -0.276 |
| COc1ccccc1/C=C(\NC(=O)c1ccc(OC)c(OC)c1)C(=O)Nc1ccc([N+](=O)[O-])cc1 | 14.3 |
| CCN(CC)c1ccc(/C=C2\C(=O)c3ccc(C(=O)O)cc3C2=O)cc1 | 3.4 |
| C/C(=N\Nc1ccc([N+](=O)[O-])cc1)c1ccc(N)cc1 | -15.2 |
| COc1cccc(-n2c(SCC(=O)c3c[nH]c4ccccc34)nc3ccccc3c2=O)c1 | 7.77 |
| Cc1ccc(NC(=O)c2c(C)noc2C)cc1 | -10.9 |
| Cc1c(N/C(=N/S(=O)(=O)c2ccc(Cl)cc2)c2ccccc2)c(=O)n(-c2ccccc2)n1C | -20.6 |
